PubChem BioAssay AID743279 (National Center for Advancing Translational Sciences (NCATS), 2014)
Among all 360,000 compounds or so, about 17,000 (4.7%) were called active. This list was built around the results that the source calls inconclusive (neither active nor inactive); the mix of calls is not that of the screen. Cut-off read from the data, not from the text of the source: active = activity change below about -50%; inconclusive = mostly about -30% to -49%; inactive = weaker than that.

Experiment: qHTS for Inhibitors of Inflammasome Signaling: IL-1-beta AlphaLISA Primary Screen
Conditions: THP-1 LPS/ATP IL-1B secretion, 16 h; at 57.5 µM, hits give low values
Procedure, shortened: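 THP-1 cells pretreated 1 hr with compounds (up to 57.5 uM final), then stimulated with LPS (250 ng/mL final) plus ATP (1.25 mM final); secreted IL-1B measured by AlphaLISA after 16 hr, decreased signal indicating inhibition.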
% is set by controls: 0 for no effect and ±100 for the full control effect.

Activity change, inactive:
COc1ccc(CNC(=O)/C=C/c2ccc(S(=O)(=O)NCc3ccco3)cc2)cc1OC -8.02%, CCCCN1C(=O)C(=O)NC[C@H]1Cc1cccc2ccccc12 20.2%, CCN(CC)CCn1c(NCc2cccc(OC)c2OC)nc2ccccc21 0%, [O-][N+](=Cc1c(Cl)cccc1Cl)CC1(O)CCCCC1 2.53%, CC(=O)c1ccc(OCCCC(=O)N2CCN(S(=O)(=O)c3cccs3)CC2)cc1 -20.7%, Cc1ccc(OCC(=O)N/N=C/c2cccnc2)cc1C -12.5%, N#Cc1c(-c2cccs2)cc(-c2ccccn2)nc1N -11.2%, COc1ccc(S(=O)(=O)N2CCOCC2)c(Cl)c1Cl -6.59%, CC(=O)c1ccccc1NCC(=O)Nc1ccc(C)cc1 -7.43%, O=C(CN1CCN(C(=O)C2CCCO2)CC1)Nc1ccc(Cl)cc1 (stereo unspecified) -5.57%, COc1ccc2nc(N/C(=N/S(=O)(=O)c3cccs3)c3ccccc3Cl)sc2c1 15.2%, Cc1ccc(-c2nn(-c3ccccc3)cc2CO)o1 -9.11%, CCc1ccc2cccc3c2c1N=CN3C 5.75%, COc1ccccc1CNC(=O)COC(=O)CCN=C1NS(=O)(=O)c2ccccc21 10%, Oc1ccccc1/C=N/[n+]1ccccc1 4.37%, CCC12OC(=N)C(C#N)(C1C)C(C#N)(C#N)C(c1ccccc1)O2 (stereo unspecified) 6.79%

Activity change, active:
O=c1c2ccccc2sn1-c1ccc(Cl)cc1Cl -105%, COc1ccc(-c2cc(-c3ccccc3)c(C#N)c(S(C)(=O)=O)n2)cc1 -96.1%, COc1c2ccoc2c(OC(C)=O)c2oc(C)cc(=O)c12 -50.7%, CC(C)C(=O)N1CCN(c2ccc(NC(=O)c3ccc4c(c3)OCCO4)cc2Cl)CC1 -97%, Cc1c(NC(=O)c2ccc([N+](=O)[O-])o2)cccc1-c1nc2ncccc2o1 -103%, CNC(C)C#Cc1ccc2sc3cccc(OC)c3c(=O)c2c1 (stereo unspecified) -80.5%, CCn1c2ccccc2c2cc(CN3CCN(Cc4cc(OC)ccc4O)CC3)ccc21 -83.7%, C[C@H](CO)N1C[C@H](C)[C@@H](CN(C)S(=O)(=O)c2ccccc2)Oc2c(NC(=O)Nc3ccc4c(c3)OCO4)cccc2C1=O -60.8%, COC1=CC(=O)c2nc(Cl)ccc2C1=O -111%, Cc1cccc(N2C(=O)c3cccc4c(N)ccc(c34)C2=O)c1 -58.4%, Cc1cc(OCCOCCNCc2ccccc2)ccc1C(C)C -63.2%, O=C(CN1C(=O)/C(=C\c2cccc(Br)c2)Oc2ccccc21)NCCCN1CCOCC1 -51.8%, COC(=O)[C@]1(Cc2ccccc2)N[C@H](CN(C)C(=O)Nc2ccc(Cl)cc2)[C@@H]2C(=O)N(Cc3ccccc3)C(=O)[C@@H]21 -64.5%

Activity change, inconclusive:
CCN(C1CCCCC1)S(=O)(=O)c1ccc(S(=O)(=O)NCc2ccncc2)cc1 -36.4%, COc1ccc(N=C2NN=C(c3c(C)[nH]c4ccccc34)CS2)cc1 -33.5%, O=[N+]([O-])c1ccc(-c2csc(N/N=C/c3cccnc3)n2)cc1 -41.6%, CCCCc1c(-c2ccccc2OC)ncn1Cc1ccc(Cl)cc1 -36.3%, COc1ccc(Cl)cc1N1C(=O)/C(=C\c2sccc2C)N=C1SCC(=O)NC1CC1 -45.1%, COc1ccc(OC)c(NC(=O)CN2CCc3ccccc3C2)c1 -38.6%, Cc1cccc(N2CCN(Cc3nc(-c4ccccc4Cl)oc3C)CC2)n1 -32.4%, COc1ccc(S(=O)(=O)N(CCCN2CCCC2=O)Cc2cc3c(C)ccc(C)c3[nH]c2=O)cc1 -39.3%, Cc1ccc(C(=O)NCCCNc2ccccc2[N+](=O)[O-])cc1 -44.8%, O=C(CN1CCC(c2nc3ccccc3s2)CC1)NCc1ccccc1 -37.6%, COCCn1c(-c2ccc(OC)cc2)c(-c2ccc(OC)cc2)oc1=O -34.8%, O=C(c1ccco1)N(CCC(c1ccccc1)c1ccco1)Cc1ccc(F)cc1 (stereo unspecified) -46.9%, O=c1[nH][nH]c(-c2ccccc2O)c1C(C[N+](=O)[O-])c1ccc(Br)cc1 (stereo unspecified) -40.1%, CCOC(=O)c1c(C)[nH]c(C(=O)OCC(=O)N2CCN(S(=O)(=O)c3ccc(C)cc3C)CC2)c1C -30.9%, Nc1ccccc1Nc1ccncc1[N+](=O)[O-] -33.9%, O=C(Cn1c2c(sc1=O)C1c3ccccc3OCC1CS2)Nc1ccc(Cl)c(Cl)c1 (stereo unspecified) -39.3%, O=C(Cn1c(C(F)(F)F)nc2ccccc21)c1ccc(Br)cc1 -33.2%, Cc1cccc(N=C2NC(=O)/C(=C/c3cn(C)c4ccccc34)S2)c1 -44.2%, COc1ccc2oc(C(=O)OC(C)C(=O)N(C)c3ccccc3)c(C)c2c1 (stereo unspecified) -36.8%, COc1ccc2c(c1)C(=O)CC(c1ccc3c(c1)OCCO3)O2 (stereo unspecified) -47.6%, Cc1ccc(NC(=O)c2sc3ncnc(N4CCN(c5ccccn5)CC4)c3c2C)c(C)c1 -44.3%, CCCc1ccc(C(=O)NNc2cc(Cl)ccc2Cl)cc1 -37%, Cc1ccccc1NC(=O)c1c(C)nn(-c2ccccc2)c1Cl -33.6%, Cc1ccc(NC(=O)CCOc2ccccc2C)cc1C -36.9%, COc1ccccc1C(=O)NC(=S)/C=C1/N(C)c2ccccc2C1(C)C -43.4%, CNC(=O)C1CCN(S(=O)(=O)c2c(C)noc2/C=C/c2cccc(C)c2)CC1 -47.4%, CC1CCN(S(=O)(=O)c2ccc(Oc3ccc([N+](=O)[O-])cc3)cc2)CC1 -44.9%
